Laboratory results: PubChem BioAssay AID1645882 (National Center for Advancing Translational Sciences (NCATS), 2021)
In all, about 16,000 compounds went through this assay and about 120 (0.75%) were called active. About 4% were inconclusive and are not listed. Calls follow the shape of the dose curve; as a rule, active = well fitted inhibition curve with a large enough effect; inconclusive = small, poorly fitted or top-dose-only effect; inactive = no such curve, though single readings can be large or run the other way. Some of the results follow.

target: Rap guanine nucleotide exchange factor 3 (Homo sapiens) (UniProt O95398); experiment: Validation qHTS for antagonist of cAMP-regulated guanine nucleotide exchange factor 3 (EPAC1); conditions: EPAC1 Rap1B-BODIPY-GDP exchange, fluorescence; series mostly up to 150 µM; activity change, negative = inhibition: at the top concentration;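 also: plate controls were DMSO for no effect and ATA control for full effect; nearly all actives have a fitted effect of over 75% in size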
Outline: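 EPAC1 (100 nM) mixed with 250 nM RAP1B-BODIPY-GDP and 50 uM GDP; compounds in concentration series, 5 min at room temperature. Fluorescence (ex 480/em 540 nm) read every 5 min for 30 min; normalized to ATA control and DMSO.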

Sequence of UniProt O95398 (O95398 whole entry, looked up): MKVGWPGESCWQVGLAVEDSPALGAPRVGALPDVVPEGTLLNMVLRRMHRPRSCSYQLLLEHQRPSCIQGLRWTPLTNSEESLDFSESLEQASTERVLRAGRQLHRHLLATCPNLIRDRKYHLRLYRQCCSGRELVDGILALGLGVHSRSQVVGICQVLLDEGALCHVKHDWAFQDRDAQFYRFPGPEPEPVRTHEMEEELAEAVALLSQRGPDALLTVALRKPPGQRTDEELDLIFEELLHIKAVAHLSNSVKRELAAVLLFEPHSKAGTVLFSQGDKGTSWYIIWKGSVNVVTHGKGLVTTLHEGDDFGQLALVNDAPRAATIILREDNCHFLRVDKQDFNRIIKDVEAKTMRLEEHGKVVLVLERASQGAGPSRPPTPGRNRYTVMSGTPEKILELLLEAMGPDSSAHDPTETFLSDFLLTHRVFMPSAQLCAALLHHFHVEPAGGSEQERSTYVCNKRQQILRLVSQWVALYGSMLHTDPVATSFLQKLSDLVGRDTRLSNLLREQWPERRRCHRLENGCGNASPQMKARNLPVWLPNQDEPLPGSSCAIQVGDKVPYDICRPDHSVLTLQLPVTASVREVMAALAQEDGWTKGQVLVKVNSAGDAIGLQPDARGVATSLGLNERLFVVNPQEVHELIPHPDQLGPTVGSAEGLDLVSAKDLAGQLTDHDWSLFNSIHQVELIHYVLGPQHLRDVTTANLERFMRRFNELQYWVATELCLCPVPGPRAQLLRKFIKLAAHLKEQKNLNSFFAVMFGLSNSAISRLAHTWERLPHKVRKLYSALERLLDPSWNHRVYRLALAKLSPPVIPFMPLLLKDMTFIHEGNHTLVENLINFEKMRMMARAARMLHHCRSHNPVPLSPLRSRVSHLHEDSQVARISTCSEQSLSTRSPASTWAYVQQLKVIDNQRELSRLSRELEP

Activity change, negative = inhibition, inactive:
COc1ccc(CN2CC[C@H]3C=CC[C@@H](C(=O)Nc4ccc(Cl)cc4Cl)[C@H]3C2=O)cc1OC -13.1%
CCN1C(=O)NC(c2ccccc2)C1=O (configuration not stated) 3.94% [at 75.8 µM]
COc1ccc(CN2CCOc3ccc(CN4CCN(CCO)CC4)cc3C2)c2ccccc12 0.345%
COc1ccccc1CN1CCC2(CC1)CCN(C(=O)c1cccn1C)CC2 30%
COc1cccc(-c2cncnc2NCCN2CCOCC2)c1 -3.64%
CN1CCCC(CC2c3ccccc3Sc3ccccc32)C1 (configuration not stated) 18% [at 75.8 µM]
Cc1nc2cnc(N3CCN(C)CC3)nc2n(CCC#N)c1=O 9.86%
Cc1noc(C)c1-c1nc(Nc2ccc(F)cc2)c2ccccc2n1 19%
COc1ccccc1N1CCN(CC(O)COc2cccc3ccccc23)CC1 (configuration not stated)
CN1CCC(=C2c3ccccc3CC(=O)c3sccc32)CC1
CCCN(CCC)C[C@@H]1CCCCN1CCNC(=O)N1c2ccccc2C(=O)Nc2cccnc21 -10.7%
N#C/C(=C\c1ccc(O)c(O)c1)C(N)=O
CNC(=O)OCc1cccc(COC(=O)NC)n1 9.91%
CC(C)(C)C(=O)OCOP(=O)(COCCn1cnc2c(N)ncnc21)OCOC(=O)C(C)(C)C 7.45%
c1ccc(CNc2ncncc2-c2ccc3c(c2)OCO3)cc1 1.45%
O=C(/C=C/c1ccc(O)c(O)c1)O[C@@H]1C[C@@](O)(C(=O)O)C[C@H](O)[C@@H]1O 15%
CCC1C(=O)NCCN1Cc1ccc2c(c1)CN(Cc1ccc(OC)c(OC)c1)CCO2 (configuration not stated) 8.54%
O=S(=O)(c1cccc2c(I)cccc12)N1CCCNCC1
CC(=O)NCCc1c[nH]c2ccc(O)cc12
CCCc1nc2cccnc2n1C1CCN(C(=O)Cn2nccc2C)CC1 -12.5%
O=C(C[n+]1cccc2cccc(O)c21)c1ccccc1 -10.1%
O=C1[C@H](Cc2ccccc2)NC/C=C\C[C@H](c2ccco2)N1Cc1ccccc1 -3.42%
CN1CCN(c2ncc3nc(-c4cccs4)c(=O)n(CCc4ccccc4)c3n2)CC1 28.6%
O=C(NCC1Cc2cccc(-c3ncccn3)c2O1)C1CCCO1 (configuration not stated) 8.4%
Cc1cccc(CNc2cc(-c3cccc(NS(C)(=O)=O)c3)ncn2)c1 19.2%
N#CC(c1ccc(Cl)cc1)c1c(Cl)cc(-n2ncc(=O)[nH]c2=O)cc1Cl (configuration not stated) -17.6%
O=c1ccc2ccc(O)c(O)c2o1 8.18% [at 75.8 µM]
O=S(=O)(NCc1ccccc1Br)c1ccccc1Br -8.39%
OC1(c2cccnc2)CCN(Cc2ccc3c(c2)CN(Cc2ccc(F)c(F)c2)CCO3)CC1 13.2%
COc1ccccc1-c1ccc2ncnc(N(C)C)c2c1 16.1%
CC(C)(O)[C@@H]1CCC[N+]2(C)CCCC[C@H]12 (some centres not stated) 28.1%
O=C(c1ccccc1-n1cccn1)N1CCOc2ccc(CN3CCOCC3)cc2C1 20.7%
COc1ccc(-n2c(=O)c(CCc3ccccc3)nc3cnc(N4CCNCC4)nc32)cc1 10.6%
C=Cc1c(C)c2cc3nc(cc4[nH]c(cc5nc(cc1[nH]2)C(C)=C5CCC(=O)OC)c(CCC(=O)O)c4C)[C@@]1(C)C3=CC=C(C(=O)OC)[C@H]1C(=O)OC 5.56%
CN(C)C(=O)c1ccc(-c2nccc(NCc3cccnc3)n2)cc1 13.1%
OC(CN1CCN(c2cccc(Cl)c2)CC1)C(c1ccccc1)c1ccccc1 (configuration not stated)
CC(=O)C[C@H]1c2cc(C(F)(F)F)ccc2S(=O)(=O)N1c1ccccc1 -16.6%
COC1(C)CCC2OC2(C)CCC2C1CC2(C)C (configuration not stated) 20.5%
Cc1cc(-c2ccnc(-n3ncc(C(=O)NCC(C)(C)N4CCOCC4)c3C)n2)c(C)s1 20.2%
CN(C)c1ccc(/C=C2/CCCc3c2nc2ccccc2c3C(=O)O)cc1 19.8%
Nc1ccc(CCNc2ncnc3c2ncn3C2OC(CO)C(O)C2O)cc1 (configuration not stated)
N[C@@H](C(=O)O)[C@H](CC(=O)O)c1ccc(Cl)cc1 4.02%
C/C(=C\c1ccc(C(=O)O)cc1)c1ccc2c(c1)C(C)(C)CCC2(C)C
OC[C@H]1O[C@@H](n2cnc3c(Nc4ccccc4)ncnc32)[C@H](O)[C@@H]1O 9.87% [at 75.8 µM]
CN(C)c1nc2cc(Cl)ccc2cc1CN(Cc1ccc2c(c1)OCO2)C(=O)c1ccoc1 2.91%
C[C@@H]1CN(Cc2ccc3c(c2)CN(Cc2cccc4cccnc24)CCO3)C[C@H](C)O1 7.11%
Cc1cnc(CNc2ncnc3ccc(-c4ccccc4C#N)cc23)cn1 18.3%
Cn1c(-c2ccncc2)nc2cc(C(=O)N[C@H]3CCCCNC3=O)cc(NC(=O)C3CCC3)c21 11.7%
COc1cc(=O)n2c(c1C(=O)NCc1ccco1)CCN(Cc1ccccc1)CC2 15%
NCCNS(=O)(=O)c1cccc2cnccc12
CS(=O)(=O)N1CCC2(CCCN(C(=O)Nc3cccc(F)c3)C2)CC1 11.8%
COCCNc1nc(-c2ccccc2CN(C)C)nc2ccccc12 7.76%
NC(N)=Nc1nc(CSCC/C(N)=N/S(N)(=O)=O)cs1
N#Cc1cccc(NC(=O)N2CC3(CCN(C(=O)c4cnccn4)CC3)C2)c1 18.9%
Cc1cc(-c2ccccc2)nnc1NCCN1CCOCC1
COc1ccc(-c2cc(=O)c3c(OC(C)=O)cc(OC(C)=O)cc3o2)cc1 -1.11%
CN(Cc1ccco1)c1ncnc2ccc(-c3ccccc3C#N)cc12 -12.4%
CCNc1ncc2nc(-c3ccccc3)c(=O)n(CCc3ccccc3)c2n1 2.65%
CC/C(=C(/CC)c1ccc(O)cc1)c1ccc(O)cc1
O=c1cc(-c2ccc(O)cc2)oc2cc(O[C@H]3OC(CO)C(O)C(O)C3O)cc(O)c12 (some centres not stated) 5.46%
CC1=C(/C=C/C(C)=C/C=C/C(C)=C\C(=O)O)C(C)(C)CCC1
Cc1ccccc1C(=O)N1CCc2c(cnc(C)c2CNC(=O)CN2CCCCC2)C1 19.3%
CC(=O)O[C@@H]1C(=O)O[C@@H]2[C@H]1OC(=O)[C@@H]2OC(C)=O 15.6%
Cc1cc(S(=O)(=O)NCc2nc(N3CCCC3)c3cc(Cl)ccc3n2)c(C)s1 9.5%
Cc1ccccc1-c1cc(Nc2ccc(F)cc2)ncn1 11.1%
Cc1cccc(C(=O)N2CCOc3ccc(CN(C)Cc4cc(C5CC5)n[nH]4)cc3C2)n1 19.1%
CN(C)c1ccc(/C=C/c2ccnc3c2ccc2c(/C=C/c4ccc(N(C)C)cc4)ccnc23)cc1 19.8%
